The text below walks through data of patent US20250221953A1 (The University of Chicago, priority 2022, published 2025).

The subject of one assay is PD-1^+ Jurkat T cells co-cultured with H596 (PD-L1^+) cells. Description: 1st screen 1b: rescue of PD-L1/PD-1 dependent exhaustion of PD-1+ Jurkat T cells in co-culture (IL-2 ELISA). In kind it is cell-based, human. Particulars: 20 μM TVA; co-cultured H596, H460 lung cancer cells or A375 melanoma cells. In general terms: An ELISA detects its analyte on a solid surface through an enzyme-linked reagent.
Consider `CCCCCC/C=C/CCCCCCCCCC(=O)O` [TVA, trans-vaccenic acid], for which the “PD-L1/PD-1-dependent exhaustion of Jurkat T cells, assessed by IL-2 production” value was “rescued PD-L1/PD-1-dependent exhaustion”.

Staying with this assay, now noted: 1st screen 1b (Table 4): rescue of PD-L1/PD-1 dependent exhaustion of PD-1 expressing Jurkat T cells co-cultured with PD-L1-expressing H596 cells.
Consider `CC1=CC(=O)C(C(C)C)=CC1=O` [Thymoquinone], for which the “Relative changed percentage (%)” value was −82.31%.
The same measure, in the same setting: then `C[N+](C)(C)CC(=O)[O-]` [Trimethylglycine], with −55.82%; and `O=c1cc[nH]c(=O)[nH]1` [URACIL], with −26.98%.
Regarding `NC(N)=O` [UREA], the “Relative changed percentage (%)” value was −16.84%.
Take `O=c1[nH]c(=O)c2[nH]c(=O)[nH]c2[nH]1` [URIC ACID]: the “Relative changed percentage (%)” value is −20.63%.
Consider `COc1c(O)c(C)c(C/C=C(\C)CC/C=C(\C)CC/C=C(\C)CC/C=C(\C)CC/C=C(\C)CC/C=C(\C)CC/C=C(\C)CC/C=C(\C)CC/C=C(\C)CCC=C(C)C)c(O)c1OC` [Ubiquinol], for which the “Relative changed percentage (%)” value is given as −52.05%.
Same read-out and setting: then `CC1=C(C/C=C(\C)CCC[C@H](C)CCC[C@H](C)CCCC(C)C)C(=O)c2ccccc2C1=O` [VITAMIN K1], with −3.136%; and `[Cl-].[Cl-].[Zn+2]` [ZINC CHLORIDE], with −51.17%; and `CC1=C(/C=C/C(C)=C/C=C/C(C)=C/C=C/C=C(C)/C=C/C=C(C)/C=C/C2=C(C)C[C@@H](O)CC2(C)C)C(C)(C)C[C@H](O)C1` [Zcaxanthin], with 14.04%.
As to `O=C([O-])CC(O)(CC(=O)[O-])C(=O)[O-].O=C([O-])CC(O)(CC(=O)[O-])C(=O)[O-].[Zn+2].[Zn+2].[Zn+2]` [Zinc Citrate], the “Relative changed percentage (%)” value stood at 9.378%.
Consider `[O]=[Zn]` [Zinc Oxide], for which the “Relative changed percentage (%)” value was −16.87%.
Turning to `CC1=C(/C=C/C(C)=C/C=C/C(C)=C/C=C/C=C(C)/C=C/C=C(C)/C=C/C2=C(C)CCCC2(C)C)C(C)(C)CCC1` [all trans B carotene], the “Relative changed percentage (%)” value is −3.188%.
Take `O=C(O)CCCCC1CCSS1` (stereo not drawn) [alpha-lipoic acid]: the “Relative changed percentage (%)” value came out at 20.02%.
For the compound `O=C(O)CCCC[C@@H]1SC[C@@H]2NC(=O)N[C@@H]21` [d-Biotin], the “Relative changed percentage (%)” value is given as 5.045%.
For `CCCCC/C=C\C/C=C\CCCCCCCC(=O)O` [linoleic acid], the “Relative changed percentage (%)” value was −73.48%.
Same read-out and setting: then `[Cl-].[Cl-].[Sr+2]` [strontium chloride], with −23.15%.
For the compound `O=C(O)[C@@H]1C[C@@H](O)CN1` [trans-4-Hydroxy-L-proline], the “Relative changed percentage (%)” value worked out at 31.9%.
As to ALPHA 1 ANTITRYPSIN, HUMAN PLASMA, the “Relative changed percentage (%)” value was −5.419%.
For the compound ARG8-VASOPRESSIN ACETATE SALT, the “Relative changed percentage (%)” value is −5.419%.
Turning to “Alpha-Tocopherol [(+/−)-A-TOCOPHEROL/Alpha-Tocopherol]”, the “Relative changed percentage (%)” value was −56.14%.
Bilirubin Mixed Isomers: the “Relative changed percentage (%)” value stood at 98.65%.
For Bromelain from pineapple stem, the “Relative changed percentage (%)” value came out at 23.01%.
Turning to “C-PEPTIDE FRAGMENT 3-33, HUMAN [C-PEPTIDE FRAGMENT 3-33, HUMAN/C-peptide]”, the “Relative changed percentage (%)” value is −56.9%.
With Chromium picolinate, the “Relative changed percentage (%)” value is given as 24.01%.
Take Collagen type II: the “Relative changed percentage (%)” value is given as −25.47%.
On to Copper Gluconate, for which the “Relative changed percentage (%)” value stood at 7.218%.
In the case of D-(+)-MALTOSE MONOHYDRATE, the “Relative changed percentage (%)” value stood at 63.15%.
As for D-Glycerate 2,3-diphosphate sodium salt, the “Relative changed percentage (%)” value stood at 92.25%.
Regarding Eicosatrienoic Acid, the “Relative changed percentage (%)” value is −33.55%.
For FERRITIN TYPE IV FROM HUMAN LIVER, the “Relative changed percentage (%)” value turned out to be 146.7316%.
Regarding Gelatin, the “Relative changed percentage (%)” value was determined as 1.989%.
In the case of Iron Gluconate, the “Relative changed percentage (%)” value turned out to be 33.44%.
Take L-A-PHOSPHATIDYLCHOLINE TYPE XVI-E: the “Relative changed percentage (%)” value worked out at 36.39%.
On the same count and under the same terms, then L-A-PHOSPHATIDYLETHANOLAMINE TYPE I, with −49.98%.
For LEPTIN, the “Relative changed percentage (%)” value is reported as −6.601%.
For Magnesium citrate, the “Relative changed percentage (%)” value is 2.333%.
With “PROINSULIN C-PEPTIDE (55-89) [PROINSULIN C-PEPTIDE (55-89)/c-peptide]”, the “Relative changed percentage (%)” value is recorded as −5.534%.
Still for that read-out and setting: under SULFUR/sulfide stands −39.76%; under Sphingomyelin, −6.342%.
Consider THYROCALCITONIN SALMON/calcitonin, for which the “Relative changed percentage (%)” value amounted to 39.43%.
Same read-out and setting: then VASOACTIVE INTESTINAL PEPTIDE, with −38.68%.
The same measure, in the same setting: then Zinc Picolinate, with −14.86%.

Still in this assay, the particulars now being: 1st screen 1b (Table 4): rescue of PD-L1/PD-1 dependent exhaustion of PD-1 expressing Jurkat T cells co-cultured with PD-L1-expressing H596 cells; hemicalcium salt.
In the case of D-Pantothenic Acid, hemicalcium salt, the “Relative changed percentage (%)” value is 67.41%.

The assay is the same for the next values; noted with them: 1st screen 1b (Table 4): rescue of PD-L1/PD-1 dependent exhaustion of PD-1 expressing Jurkat T cells co-cultured with PD-L1-expressing H596 cells; listed as D-PANTOTHENIC ACID HEMICALCIUM, hemicalcium salt.
Consider D-Pantothenic Acid, hemicalcium salt, for which the “Relative changed percentage (%)” value is recorded as −48.47%.
